# Some of the results follow.
# B1: chr15:38485071:38485172:+|3pUTR|ENSG00000171262|unk|total|mutant (ssRNA)
# RNA: GGGAGUUCUACAGUCCGACGAUCUUGCCUCACCUGUAUUGCUGUGGAUGUGUUUUGUGGGUUUUUCAUUCGAUUUUACAAAACCGGGAAAGGCACUUCCAGUUGUAUUCCGCCGGCAGUUGUUGUGAAUCAUUUUUUUCUCUUCAACAGAGGAUUGAGCAUCA
# B2: ENSG00000198589:be:win_2301|CDS|ENSG00000198589|bound_else_gene|NA|bound_elsewhere_windowed (ssRNA)
# RNA: GGGAGUUCUACAGUCCGACGAUCGCUAGCUGAAAGGCUCAUGCUUCAGACAAAUUUAAUCACAAUGACCACAUAUAAUGUGCUGUUUGAGAUUCUUAUAGAACAGAUUGGUACUCAGGUGAUACAUAAACAGCAUCCAGAUCCCAACAGAGGAUUGAGCAUCA
# B3: ENSG00000070961:be:win_4951|3pUTR|ENSG00000070961|bound_else_gene|NA|bound_elsewhere_windowed (ssRNA)
# RNA: GGGAGUUCUACAGUCCGACGAUCGGUAACAGCCCCAUGAAGUACCGCUUUAAUUCCUUGCUGGUAAUCUAAUAGAAUCAGAUUAAGAAAAUUAACACAAUUUUACCAUUUGACAUACUCUUCAUUGAAUUUAGUUUGUCUAAACAACAGAGGAUUGAGCAUCA
# B4: chr3:121987322:121988366:-|three_prime_utr|ENSG00000145103|control|control|control (ssRNA)
# RNA: GGGAGUUCUACAGUCCGACGAUCCCAAGCACAGCACAACUUCUGUGGCUACUUCUCGGCUCCUGUGUGUCAUCAGCAUCACCUAGGUUUCCAGCUGACUUGGGAACUGCAAGUCUGAGUCUAACAGUUUUUGGCUUAGAUUCUCAACAGAGGAUUGAGCAUCA
# B5: chr17:31995613:31995700:+|CDS|ENSG00000178691|msi1_unk|FALSE|overlapping (ssRNA)
# RNA: GGGAGUUCUACAGUCCGACGAUCAGCAUGUCUGAAUUUCUUGAAUCUGAAGAUGGGGAAGUAGAACAGCAAAGAACAUAUAGUAGUGGCCACAAUCGUCUGUAUUUCCAUAGUGAUACCUGCUUACCUCUCCGUCCACAAGAACAACAGAGGAUUGAGCAUCA
# B6: chr17:81922623:81922724:-|CDS|ENSG00000197063|msi1|FALSE|unique (ssRNA)
# RNA: GGGAGUUCUACAGUCCGACGAUCUGCCGCCGGCCUGGGGCCCCUCGUCCCAGGCAAGGUGGCCGCCACCAGCGUCAUCACAAUAGUAAAGUCCAAGACGGAUGCCCGAUCGUAGGGACGCGCGUCUGCCCAGGCGGGUCUUUGCAACAGAGGAUUGAGCAUCA
# Target: T1, UNK ZnF1-6 (called full-length) (human, UniProt Q9C0B0 30-357)
# T1 sequence: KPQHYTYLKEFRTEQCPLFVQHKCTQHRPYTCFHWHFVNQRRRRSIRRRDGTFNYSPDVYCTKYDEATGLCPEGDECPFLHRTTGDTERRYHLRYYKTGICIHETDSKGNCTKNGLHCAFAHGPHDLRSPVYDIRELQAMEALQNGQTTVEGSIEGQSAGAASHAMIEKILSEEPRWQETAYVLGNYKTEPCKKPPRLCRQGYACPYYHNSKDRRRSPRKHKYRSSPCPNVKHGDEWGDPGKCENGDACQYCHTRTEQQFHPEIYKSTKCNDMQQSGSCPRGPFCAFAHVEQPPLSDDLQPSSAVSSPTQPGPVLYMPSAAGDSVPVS
# Test: nsRBNS (natural sequence RNA bind-n-seq); RBNS binding buffer (assumed for nsRBNS): 25 mM Tris pH 7.5, 150 mM KCl, 3 mM MgCl2, 0.01% Triton X-100, 500 ug/ml BSA, 20 U/ml SUPERase-In, 4 C; UNK is unkempt and MSI1 is Musashi-1; names of the RNAs are library labels; protein concentration not given here; high values mean tight binding
row,Binder,binding signal [enrichment R]
1,B1,0.32
2,B2,0.359
3,B3,0.952
4,B4,0.54
5,B5,0.693
6,B6,0.591

# From article PMC12136788
